# Source: PubChem BioAssay AID1768 (National Center for Advancing Translational Sciences (NCATS), 2009)
# Hit rate of the full screen: of about 270,000 compounds, about 620 (0.23%) were called active. This list was built around the results that the source calls inconclusive (neither active nor inactive); the mix of calls is not that of the screen. Calls follow the shape of the dose curve; as a rule, active = well fitted inhibition curve with a large enough effect in the polarisation, with a control signal flat (not every such curve was filed as active); inconclusive = small, poorly fitted or top-dose-only effect, or effect the other way, or a change in a side signal; inactive = no such curve, though single readings can be large or run the other way; the % refers to the polarisation. Potencies of inconclusive entries are doubtful fits and often do not repeat. “Side channel” marks fits to a control or component signal instead of the main read-out.
# Molecular target: Menin (Homo sapiens) (UniProt O00255)
# Chain of UniProt O00255 (O00255 whole entry, looked up): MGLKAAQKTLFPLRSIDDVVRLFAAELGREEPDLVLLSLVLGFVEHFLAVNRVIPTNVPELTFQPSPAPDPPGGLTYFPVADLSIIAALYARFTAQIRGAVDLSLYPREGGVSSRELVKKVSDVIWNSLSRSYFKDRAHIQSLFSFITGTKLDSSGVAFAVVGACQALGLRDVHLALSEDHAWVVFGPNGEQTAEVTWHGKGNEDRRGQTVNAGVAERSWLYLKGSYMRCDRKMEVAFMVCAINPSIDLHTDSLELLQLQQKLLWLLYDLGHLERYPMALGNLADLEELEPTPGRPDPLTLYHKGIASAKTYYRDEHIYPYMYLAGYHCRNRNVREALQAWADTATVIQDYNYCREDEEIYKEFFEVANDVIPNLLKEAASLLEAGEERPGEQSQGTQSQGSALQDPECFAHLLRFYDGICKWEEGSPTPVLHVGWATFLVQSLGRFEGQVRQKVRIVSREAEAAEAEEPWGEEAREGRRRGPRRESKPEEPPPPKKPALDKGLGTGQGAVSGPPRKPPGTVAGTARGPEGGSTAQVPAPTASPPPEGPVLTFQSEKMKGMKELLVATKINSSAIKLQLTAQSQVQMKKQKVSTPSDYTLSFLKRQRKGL
# Assay: qHTS Assay for Inhibitors Targeting the Menin-MLL Interaction in MLL Related Leukemias: Competition With Texas Red Labeled MLL-derived Mutant Peptide; as to FP activity change, negative = inhibition: % of control where 0% means no effect
# Details: fluorescence polarization; FP activity change, negative = inhibition: at 61.6 µM (top of the series)
# Potency is read from the fitted curve at half-maximal effect; tags tell the direction and shape of the fitted curve or compound fluorescence and quenching.
SMILES,Potency,"FP activity change, negative = inhibition"
COc1cccc(N2C(=O)CC(c3c[nH]c4ccccc34)C2=O)c1 (stereo unspecified),"inconclusive: 39.8 µM [quencher, side channel, single point]",–
C=CCOc1ccc(C2/C(=C(\O)c3ccc4c(c3)CC(C)O4)C(=O)C(=O)N2CCN2CCOCC2)cc1OCC (stereo unspecified),"inconclusive: 39.8 µM [inhibitor, single point]",–
COc1nc(N(C)S(=O)(=O)c2ccc(C)cc2)nc(C)c1Br,"inconclusive: 35.5 µM [fluorescent, side channel, single point]",–
Cc1cccc(NC(=O)CCNS(=O)(=O)c2ccc(Cl)cc2)c1,"inconclusive: 39.8 µM [inhibitor, single point]",–
CCN(CC)c1ccc(NC(=O)COC(=O)c2cccs2)cc1,–,inactive: -2.43%
COCCN1C(=S)N[C@@H](c2cccc(F)c2)C(C(=O)OC)=C1C,"inconclusive: 1.78 µM [inhibitor, full curve, poor fit]",–
COc1ccc(NC2C=CS(=O)(=O)C2)c(OC)c1 (stereo unspecified),"inconclusive: 31.6 µM [inhibitor, partial curve]",–
Cc1cc2nc(C3CCCN(C(=S)Nc4ccccc4)C3)[nH]c2cc1C (stereo unspecified),"inconclusive: 25.1 µM [quencher, side channel, single point]",–
Cc1ccccc1NC(NC(=O)OCCn1c([N+](=O)[O-])cnc1C)C(Cl)(Cl)Cl (stereo unspecified),–,inactive: 42.4%
Cn1c(CC(=O)Nc2ccccc2)c(Sc2ccccc2)c2ccccc21,"inconclusive: 3.16 µM [quencher, side channel, partial curve]",–
Cc1cc(=O)[nH]c(SCC(=O)/C=C2\N(C)c3ccccc3C2(C)C)n1,"inconclusive: 39.8 µM [fluorescent, side channel, single point]",–
Cc1cc(C(=O)COC(=O)c2csc3c2CCCC3)c(C)n1C,"inconclusive: 44.7 µM [inhibitor, single point]",–
COc1cccc(NC(=O)NNC(=O)COc2ccc3ccccc3c2)c1,"inconclusive: 39.8 µM [inhibitor, single point]",–
CCCSc1nnc(NC(=O)CSc2sc3c(O)cc(=O)[nH]c3c2C#N)s1,"inconclusive: 28.2 µM [quencher, side channel, partial curve]",–
NNC(=O)c1c(O)c2cccc3c2n(c1=O)CCC3,"inconclusive: 3.55 µM [inhibitor, full curve]",–
COC(=O)C1=CN(c2cccc(C)c2)C=C(C(=O)OC)C1c1cc(OC)c(O)c([N+](=O)[O-])c1,"inconclusive: 39.8 µM [quencher, side channel, single point]",–
O=C(CSc1ccccc1)Nc1ccc2sccc2c1,"inconclusive: 39.8 µM [fluorescent, side channel, single point]",–
CC(=O)Cc1nsc(NC(=O)c2ccc(-c3ccc(Cl)cc3Cl)o2)n1,"inconclusive: 22.4 µM [quencher, side channel, single point]",–
CCc1nnc(N2CCN(c3ncnc4c3oc3ccccc34)CC2)s1,"inconclusive: 39.8 µM [inhibitor, single point]",–

SMILES,Potency,"FP activity change, negative = inhibition"
Cc1cccc(-n2cnc(C(=O)NNC(=S)Nc3ccc(Cl)cc3)c2)n1,"inconclusive: 20 µM [quencher, side channel, partial curve]",–
CC(Oc1ccccc1)C(=O)Nc1oc(-c2ccco2)c(-c2ccco2)c1C#N (stereo unspecified),"inconclusive: 35.5 µM [quencher, side channel, single point]",–
COc1ccc(-c2ccc(CNCc3ccccn3)o2)cc1Cl,"inconclusive: 3.55 µM [inhibitor, full curve]",–
CCOC(=O)/C(=N\Nc1ccccc1Cl)N1CCN(Cc2ccccc2)CC1,"inconclusive: 3.98 µM [fluorescent, side channel, full curve]",–
Cc1c(-c2nc(N)nc(Nc3ccccc3)n2)oc2ccccc12,"inconclusive: 10 µM [quencher, side channel, partial curve]",–
CCOC(=O)/C(=N\Nc1ccc(OC)cc1)c1csc(Nc2ccccc2)n1,"inconclusive: 3.55 µM [quencher, side channel, full curve]",–
O=S(=O)(Cc1cc(-c2ccc(Cl)cc2)no1)c1ccccc1,"inconclusive: 28.2 µM [inhibitor, single point]",–
O=[N+]([O-])c1ccc(F)cc1OCc1nc(-c2cccs2)no1,"inconclusive: 25.1 µM [quencher, side channel, single point]",–
COc1ccc(C[C@@H]2CN3C(=NC[C@@H]3C)N2C[C@H](C)NC(=O)CCC2CCCCC2)cc1,"inconclusive: 10 µM [fluorescent, side channel, partial curve]",–
O=C(c1ccco1)N1CCN(Cc2ccccc2Br)CC1,"inconclusive: 35.5 µM [inhibitor, single point]",–
O=[N+]([O-])c1ccc(Cl)c(S(=O)(=O)N2CCCCCC2)c1,"inconclusive: 28.2 µM [quencher, side channel, single point]",–
Cc1cc(NC(=O)COC(=O)C2CC(=O)N(c3ccc(Br)cc3)C2)no1 (stereo unspecified),"inconclusive: 0.282 µM [quencher, side channel, full curve]",–
CCCc1nc2oc3c(N4CCNCC4)ncnc3c2c2c1CCCC2,"inconclusive: 0.794 µM [quencher, side channel, full curve, poor fit]",–
Cc1ccc(NC(=S)NC(=O)c2sc3ccccc3c2Cl)c(C(=O)O)c1,"inconclusive: 35.5 µM [inhibitor, single point]",–
C=CCN1C(=O)CS/C1=C(\C#N)S(=O)(=O)c1ccc(C)cc1,"inconclusive: 12.6 µM [fluorescent, side channel, partial curve]",–
CN(C)c1cc(O)c(C(=S)Nc2ccccc2)c(N(C)C)c1,"inconclusive: 17.8 µM [quencher, side channel, partial curve]",–
COCCNC(=O)/C(C#N)=C/c1c(N2CCCCCC2)nc2c(C)cccn2c1=O,"inconclusive: 12.6 µM [fluorescent, side channel, partial curve]",–
Cc1ccccc1Nc1nnc(SCC(=O)NC(=O)Nc2ccc3c(c2)OCCO3)s1,"inconclusive: 31.6 µM [inhibitor, single point]",–
CC(Sc1ccc(Cl)cc1)C(=O)Nc1ccccc1-c1ccccc1 (stereo unspecified),–,inactive: -7.87%

SMILES,Potency,"FP activity change, negative = inhibition"
O=C1CC(SC(=Nc2ccccc2)Nc2ccccc2)C(=O)N1c1ccc(Cl)c(Cl)c1 (stereo unspecified),"inconclusive: 3.55 µM [quencher, side channel, single point]",–
COc1cccc(OC)c1-c1cc(C(=O)NC2(C(=O)O)C3CC4CC(C3)CC2C4)nn1-c1ccc(C(=O)N(C)CCCN(C)C)cc1C(C)C (stereo unspecified),–,inactive: -9.18%
Cc1c(C(=O)O)[nH]c2ccc([N+](=O)[O-])cc12,"inconclusive: 28.2 µM [quencher, side channel, single point]",–
COc1ccc(C2NC(=O)NC(C)=C2C(=O)OC2CCC(C)CC2)cc1 (stereo unspecified),"inconclusive: 11.2 µM [fluorescent, side channel, partial curve]",–
CCN(CC)S(=O)(=O)c1cccc(C(=O)N/N=C/c2ccc(O)c(O)c2O)c1,"inconclusive: 14.1 µM [quencher, side channel, partial curve]",–
Cc1oc2c(C)c3oc(=O)c(CCC(=O)NCCN4CCOCC4)c(C)c3cc2c1C,"inconclusive: 12.6 µM [fluorescent, side channel, partial curve]",–
Cc1cccc(OCC(=O)Nc2ccc(C(=O)Nc3ccccc3C(=O)O)cc2)c1C,"inconclusive: 7.94 µM [quencher, side channel, partial curve]",–
CCCn1c(=O)c(C(=O)NNS(=O)(=O)c2ccc(NC(=O)OC)cc2)c(O)c2ccccc21,"inconclusive: 25.1 µM [quencher, side channel, single point]",–
CS(=O)c1ccc(-c2nc(-c3ccc(F)cc3)c(-c3ccncc3)[nH]2)cc1 (stereo unspecified),inactive,–
COc1ccccc1C1CC(c2ccc(Br)cc2)=NN1C(=O)c1cccnc1 (stereo unspecified),"inconclusive: 1 µM [inhibitor, full curve]",–
COc1cccc(Cn2cccc(NC(=O)Nc3ccc(C#N)cc3)c2=O)c1,"inconclusive: 25.1 µM [quencher, side channel, partial curve]",–
O=C(C1=C[C@H](c2ccc3c(c2)OCO3)C[C@H](OCCCCO)O1)N1CCN(Cc2ccccc2)CC1,"inconclusive: 6.31 µM [fluorescent, side channel, partial curve]",–
Cc1cc(C)c(C#N)c(SCc2[nH]nc3c2C(c2ccc(F)cc2)C(C#N)=C(N)O3)n1 (stereo unspecified),–,inactive: 14.7%
COC(=O)C1(S(=O)(=O)c2cc(Br)cc3c2N(C(C)=O)CC3)CC1,"inconclusive: 39.8 µM [inhibitor, partial curve, poor fit]",–
CC(=O)c1c(C(C)=O)c(C)n(-c2ccc(C)c(NC(=O)c3ccccc3Cl)c2)c1C,"inconclusive: 22.4 µM [fluorescent, side channel, single point]",–
COc1ccc2c(c1)c(C(=O)N1CCN(C)CC1)c(C)n2-c1ccccc1,"inconclusive: 0.631 µM [inhibitor, full curve]",–
COc1ccccc1NC(=O)N1CCc2[nH]c3ccc(Cl)cc3c2C1,"inconclusive: 8.91 µM [quencher, side channel, partial curve]",–
CC(C)OCCCNC(=O)CN1C(=O)/C(=C/c2ccccc2F)Oc2ccccc21,"inconclusive: 14.1 µM [fluorescent, side channel, partial curve]",–
